Reference: the supplement of paper PMC10037445
Over roughly 2,900 compounds, “IRF Lucia reporter activity, fold change vs agonist alone” has its median near 0.9; the highest 2% begin near 2.8. This is one part of the list.

Columns and labels:
RAW-Dual [1] = assay: IRF Lucia reporter activity, fold change vs agonist alone; cytotoxicity flag (confluency mask): not cytotoxic; higher = enhanced IRF activity
Summary of the method: (§1)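 Cytotoxic wells were those whose IncuCyte confluency was below 70% of agonist controls in both mask sets. The cells were RAW-Dual macrophages at 50,000 cells/well in DMEM on 384-well plates, dosed with 50 nL of library stock by pin tool, stimulated with a PRR agonist 1 h later, and kept at 37 °C, 5% CO2 for 20 hours. IRF and NF-κB reporter activity, as fold change over agonist-alone wells, came from supernatant read by QuantiLuc luminescence and QuantiBlue absorbance, respectively.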

RAW-Dual [2] = assay: IRF Lucia reporter activity, fold change vs agonist alone; higher = enhanced IRF activity; conditions: agonist: MPLA (TLR4) […]
Summary of the method: as §1

RAW-Dual [3] = assay: IRF Lucia reporter activity, fold change vs agonist alone; cytotoxicity flag (confluency mask): cytotoxic (confluency <70% of control); higher = enhanced IRF activity
Summary of the method: as §1

[4] = agonist: 3'3'-cGAMP (STING) 10 ug/mL
[5] = library stock concentration (final ~1000-fold dilution): 10 mM, cytotoxicity flag (confluency mask): not cytotoxic
[6] = library stock concentration (final ~1000-fold dilution): 10 mM, cytotoxicity flag (confluency mask): cytotoxic (confluency <70% of control)

SMILES: CCn1c(=O)c(-c2ccn[nH]2)cc2c(C)nc(N)nc21 (library stock concentration (final ~1000-fold dilution): 10 mM)
- IRF Lucia reporter activity (RAW-Dual [1]; [4]): 0.238
- IRF Lucia reporter activity (RAW-Dual [1]; agonist: LPS (TLR4) 0.1 ug/mL): 0.702

SMILES: CCc1cccc(CC)c1NC(=O)N1Cc2[nH]nc(NC(=O)c3ccc(N4CCN(C)CC4)cc3)c2C1
- IRF Lucia reporter activity (RAW-Dual [2]; [5]): 0.317

SMILES: CCc1cccc(CC)c1NC(=O)N1Cc2[nH]nc(NC(=O)c3ccc(N4CCN(C)CC4)cc3)c2C1 (library stock concentration (final ~1000-fold dilution): 10 mM)
- IRF Lucia reporter activity (RAW-Dual [1]; [4]): 0.425
- IRF Lucia reporter activity (RAW-Dual [1]; agonist: LPS (TLR4) 0.1 ug/mL): 0.383

SMILES: COc1ccc(Cl)cc1C(=O)NCCc1ccc(S(=O)(=O)NC(=O)NC2CCCCC2)cc1 (library stock concentration (final ~1000-fold dilution): 50 mM)
- IRF Lucia reporter activity (RAW-Dual [1]; [4]): 0.761
- IRF Lucia reporter activity (RAW-Dual [1]; agonist: LPS (TLR4) 0.1 ug/mL): 1.09

SMILES: N#Cc1ccc2ncnc(NCCc3ccccc3)c2c1 (library stock concentration (final ~1000-fold dilution): 10 mM)
- IRF Lucia reporter activity (RAW-Dual [1]; [4]): 0.147
- IRF Lucia reporter activity (RAW-Dual [1]; agonist: LPS (TLR4) 0.1 ug/mL): 0.399

SMILES: O=[N+]([O-])c1ccc(Nc2nc(N3CCOCC3)nc(N3CCOCC3)n2)cc1 (library stock concentration (final ~1000-fold dilution): 10 mM)
- IRF Lucia reporter activity (RAW-Dual [1]; [4]): 0.372
- IRF Lucia reporter activity (RAW-Dual [1]; agonist: LPS (TLR4) 0.1 ug/mL): 1.09

SMILES: O=C1O[C@H]([C@@H](O)CO)C([O-])=C1O.[Na+] (library stock concentration (final ~1000-fold dilution): 10 mM water)
- IRF Lucia reporter activity (RAW-Dual [1]; [4]): 1.45
- IRF Lucia reporter activity (RAW-Dual [1]; agonist: LPS (TLR4) 0.1 ug/mL): 0.717

SMILES: Cn1c(=O)cc(N2CCCC(N)C2)n(Cc2cc(F)ccc2C#N)c1=O.O=C(O)CCC(=O)O (centres undefined)
- IRF Lucia reporter activity (RAW-Dual [2]; [5]): 1.13

SMILES: Cn1c(=O)cc(N2CCCC(N)C2)n(Cc2cc(F)ccc2C#N)c1=O.O=C(O)CCC(=O)O (centres undefined) (library stock concentration (final ~1000-fold dilution): 10 mM)
- IRF Lucia reporter activity (RAW-Dual [1]; [4]): 1.04
- IRF Lucia reporter activity (RAW-Dual [1]; agonist: LPS (TLR4) 0.1 ug/mL): 1.26

SMILES: CC(C)(C)c1cc(O)c(C(C)(C)C)cc1O (library stock concentration (final ~1000-fold dilution): 10 mM)
- IRF Lucia reporter activity (RAW-Dual [1]; [4]): 0.608
- IRF Lucia reporter activity (RAW-Dual [1]; agonist: LPS (TLR4) 0.1 ug/mL): 1.97

SMILES: CC(C)(C)c1cc(O)c(C(C)(C)C)cc1O
- IRF Lucia reporter activity (RAW-Dual [2]; [5]): 1.94

SMILES: Cc1ccc(S(=O)(=O)Nc2nc3ccccc3nc2Nc2ccc3nsnc3c2)cc1 (library stock concentration (final ~1000-fold dilution): 2 mM)
- IRF Lucia reporter activity (RAW-Dual [1]; [4]): 0.727
- IRF Lucia reporter activity (RAW-Dual [1]; agonist: LPS (TLR4) 0.1 ug/mL): 0.954

SMILES: Cc1ccc(S(=O)(=O)Nc2nc3ccccc3nc2Nc2ccc3nsnc3c2)cc1
- IRF Lucia reporter activity (RAW-Dual [2]; library stock concentration (final ~1000-fold dilution): 2 mM, cytotoxicity flag (confluency mask): not cytotoxic): 1.14

SMILES: NC1(Cc2ccc(Cl)cc2)CCN(c2ncnc3[nH]ccc23)CC1
- IRF Lucia reporter activity (RAW-Dual [2]; [5]): 1.04

SMILES: NC1(Cc2ccc(Cl)cc2)CCN(c2ncnc3[nH]ccc23)CC1 (library stock concentration (final ~1000-fold dilution): 10 mM)
- IRF Lucia reporter activity (RAW-Dual [1]; [4]): 1.05
- IRF Lucia reporter activity (RAW-Dual [1]; agonist: LPS (TLR4) 0.1 ug/mL): 0.584

SMILES: COc1ccc(-c2ccc3c(N4CCOCC4C)nc(N4CCOCC4C)nc3n2)cc1CO (centres undefined) (library stock concentration (final ~1000-fold dilution): 10 mM)
- IRF Lucia reporter activity (RAW-Dual [1]; [4]): 0.322
- IRF Lucia reporter activity (RAW-Dual [1]; agonist: LPS (TLR4) 0.1 ug/mL): 0.421

SMILES: COc1ccc(-c2ccc3c(N4CCOCC4C)nc(N4CCOCC4C)nc3n2)cc1CO (centres undefined)
- IRF Lucia reporter activity (RAW-Dual [2]; [5]): 0.506

SMILES: Cc1cc(C(C)Nc2ccccc2)c2nc(N3CCOCC3)cc(=O)n2c1 (centres undefined)
- IRF Lucia reporter activity (RAW-Dual [2]; [5]): 1.83

SMILES: Cc1cc(C(C)Nc2ccccc2)c2nc(N3CCOCC3)cc(=O)n2c1 (centres undefined) (library stock concentration (final ~1000-fold dilution): 10 mM)
- IRF Lucia reporter activity (RAW-Dual [1]; [4]): 0.336
- IRF Lucia reporter activity (RAW-Dual [1]; agonist: LPS (TLR4) 0.1 ug/mL): 1.65

SMILES: O=C1OC(COc2ccccc2[N+](=O)[O-])CC1Cc1ccccc1 (centres undefined) (library stock concentration (final ~1000-fold dilution): 10 mM)
- IRF Lucia reporter activity (RAW-Dual [1]; [4]): 1.23
- IRF Lucia reporter activity (RAW-Dual [1]; agonist: LPS (TLR4) 0.1 ug/mL): 1.23

SMILES: Clc1ccc2nsnc2c1NC1=NCCN1 (library stock concentration (final ~1000-fold dilution): 10 mM)
- IRF Lucia reporter activity (RAW-Dual [1]; [4]): 0.968
- IRF Lucia reporter activity (RAW-Dual [1]; agonist: LPS (TLR4) 0.1 ug/mL): 0.863

SMILES: Clc1ccc2nsnc2c1NC1=NCCN1
- IRF Lucia reporter activity (RAW-Dual [2]; [5]): 0.967

SMILES: Cc1cc(Nc2cc(N3CCN(C)CC3)nc(Sc3ccc(NC(=O)C4CC4)cc3)n2)n[nH]1
- IRF Lucia reporter activity (RAW-Dual [2]; [5]): 0.524

SMILES: Cc1cc(Nc2cc(N3CCN(C)CC3)nc(Sc3ccc(NC(=O)C4CC4)cc3)n2)n[nH]1 (library stock concentration (final ~1000-fold dilution): 10 mM)
- IRF Lucia reporter activity (RAW-Dual [1]; [4]): 0.117
- IRF Lucia reporter activity (RAW-Dual [1]; agonist: LPS (TLR4) 0.1 ug/mL): 0.512

SMILES: O=C1c2ccc(O)cc2C(=O)c2ccc(O)cc21
- IRF Lucia reporter activity (RAW-Dual [2]; [5]): 1.02

SMILES: O=C1c2ccc(O)cc2C(=O)c2ccc(O)cc21 (library stock concentration (final ~1000-fold dilution): 10 mM)
- IRF Lucia reporter activity (RAW-Dual [1]; [4]): 0.975
- IRF Lucia reporter activity (RAW-Dual [1]; agonist: LPS (TLR4) 0.1 ug/mL): 1.16

SMILES: CC(C)c1c2cc(-c3ccnc(NC4CCC(NC5CCOCC5)CC4)n3)ccc2nn1C (centres undefined) (library stock concentration (final ~1000-fold dilution): 10 mM)
- IRF Lucia reporter activity (RAW-Dual [3]; [4]): 0.0123
- IRF Lucia reporter activity (RAW-Dual [3]; agonist: LPS (TLR4) 0.1 ug/mL): 0.0195

SMILES: CC(C)c1c2cc(-c3ccnc(NC4CCC(NC5CCOCC5)CC4)n3)ccc2nn1C (centres undefined)
- IRF Lucia reporter activity (RAW-Dual [2]; [6]): 0.0225

SMILES: CC(=O)Nc1nnc(S(N)(=O)=O)s1
- IRF Lucia reporter activity (RAW-Dual [2]; [5]): 1.01

SMILES: CC(=O)Nc1nnc(S(N)(=O)=O)s1 (library stock concentration (final ~1000-fold dilution): 10 mM)
- IRF Lucia reporter activity (RAW-Dual [1]; [4]): 1.07
- IRF Lucia reporter activity (RAW-Dual [1]; agonist: LPS (TLR4) 0.1 ug/mL): 1.38

SMILES: Nc1nc(OCc2cc(Br)cs2)c2[nH]cnc2n1 (library stock concentration (final ~1000-fold dilution): 10 mM)
- IRF Lucia reporter activity (RAW-Dual [1]; [4]): 0.354
- IRF Lucia reporter activity (RAW-Dual [1]; agonist: LPS (TLR4) 0.1 ug/mL): 0.525

SMILES: CC1(C)CN(C(=O)c2ccc(-c3cccc4nc(NC(=O)C5CC5)nn34)cc2)C1
- IRF Lucia reporter activity (RAW-Dual [2]; [5]): 0.713

SMILES: CC1(C)CN(C(=O)c2ccc(-c3cccc4nc(NC(=O)C5CC5)nn34)cc2)C1 (library stock concentration (final ~1000-fold dilution): 10 mM)
- IRF Lucia reporter activity (RAW-Dual [1]; [4]): 0.308
- IRF Lucia reporter activity (RAW-Dual [1]; agonist: LPS (TLR4) 0.1 ug/mL): 0.577

SMILES: Clc1ccc(C2(c3ccc(-c4cn[nH]c4)cc3)CCNCC2)cc1
- IRF Lucia reporter activity (RAW-Dual [2]; [6]): 1.09

SMILES: Clc1ccc(C2(c3ccc(-c4cn[nH]c4)cc3)CCNCC2)cc1 (library stock concentration (final ~1000-fold dilution): 10 mM)
- IRF Lucia reporter activity (RAW-Dual [3]; [4]): 0.215
- IRF Lucia reporter activity (RAW-Dual [3]; agonist: LPS (TLR4) 0.1 ug/mL): 1.04

SMILES: CCS(=O)(=O)c1cccc(-c2cc(C(=O)NC3CCN(C)CC3)c(C)c3[nH]c4ncc(C)cc4c23)c1
- IRF Lucia reporter activity (RAW-Dual [2]; [6]): 0.112

SMILES: CCS(=O)(=O)c1cccc(-c2cc(C(=O)NC3CCN(C)CC3)c(C)c3[nH]c4ncc(C)cc4c23)c1 (library stock concentration (final ~1000-fold dilution): 10 mM)
- IRF Lucia reporter activity (RAW-Dual [3]; [4]): 0.13
- IRF Lucia reporter activity (RAW-Dual [3]; agonist: LPS (TLR4) 0.1 ug/mL): 0.0788
